The values that follow come from PubChem BioAssay AID488969 (Vanderbilt High Throughput Screening Facility, 2010).

In all, about 110,000 compounds were measured (“z-score”: median about -0.1, highest 2% from about 2 on). The list shows a part of the results. Activity calls are given as the source filed them.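 The calls were made as follows: active = z-score in the third read window above 3 or below -3; inactive = the rest.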

The test concerns the target Metabotropic glutamate receptor 8 (Rattus norvegicus) (UniProt P70579). In words: rat mGluR8 modulators via GIRK flux, primary screen, cell-based, thallium flux, HTS (AID 488969). The following applies: HEK293 rat mGluR8, GIRK (G protein-gated inwardly rectifying potassium channel) thallium flux, FluoZin2; at 10 µM; stronger effect = higher value; submaximal glutamate (EC20) added with thallium.
Sequence of UniProt P70579 (P70579 whole entry, looked up): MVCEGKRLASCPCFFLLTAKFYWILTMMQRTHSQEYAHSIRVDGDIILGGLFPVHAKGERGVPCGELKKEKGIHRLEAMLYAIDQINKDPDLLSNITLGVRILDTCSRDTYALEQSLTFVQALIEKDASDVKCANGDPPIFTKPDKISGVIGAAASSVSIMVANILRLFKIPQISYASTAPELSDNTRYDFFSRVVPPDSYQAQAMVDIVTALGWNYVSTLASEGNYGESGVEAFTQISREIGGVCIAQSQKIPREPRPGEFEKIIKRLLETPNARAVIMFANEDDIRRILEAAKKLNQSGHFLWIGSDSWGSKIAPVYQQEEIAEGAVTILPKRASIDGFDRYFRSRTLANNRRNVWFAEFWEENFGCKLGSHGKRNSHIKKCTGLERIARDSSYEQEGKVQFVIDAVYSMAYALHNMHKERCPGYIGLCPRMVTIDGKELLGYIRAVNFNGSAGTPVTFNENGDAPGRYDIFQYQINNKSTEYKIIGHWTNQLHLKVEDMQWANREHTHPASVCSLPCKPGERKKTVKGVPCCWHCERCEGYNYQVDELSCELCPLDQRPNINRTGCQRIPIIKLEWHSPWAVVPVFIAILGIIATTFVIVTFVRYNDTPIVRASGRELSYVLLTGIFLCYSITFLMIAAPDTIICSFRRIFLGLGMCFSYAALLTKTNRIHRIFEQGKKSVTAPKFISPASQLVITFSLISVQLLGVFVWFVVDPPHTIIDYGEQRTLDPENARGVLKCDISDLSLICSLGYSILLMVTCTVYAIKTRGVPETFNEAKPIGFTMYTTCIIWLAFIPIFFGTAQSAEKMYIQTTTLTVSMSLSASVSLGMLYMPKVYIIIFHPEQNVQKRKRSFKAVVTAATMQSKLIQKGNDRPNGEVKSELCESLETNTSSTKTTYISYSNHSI
`Cc1ccc(C2C(C#N)=C(N)Oc3cc4c(cc32)OCO4)cc1` (stereo unspecified) registered a z-score of -0.525. `Cc1cccc(OCCC(=O)OCC(=O)N2CCc3ccccc32)c1` had a z-score of -0.0598. `N#Cc1c(Nc2ccccc2)c(/C=N/N=C/c2ccccc2)c[nH]c1=O` displayed a z-score of -1.36.

The compound `C=CCSc1nnc(-c2nnc(SCC=C)n2CC)n1CC` displayed a z-score of 0.0792. Regarding `COC(=O)c1ccc2c(c1)C(C)(C)C(/C=C/c1ccc(O)cc1)=[N+]2C`, the z-score was -2.19. In the case of `CC1(C)C2CCC1(C)C(NC(=O)CCN1CCCCC1)C2` (stereo unspecified), the z-score was determined as 0.731. `COc1ccc(NC(=O)/C(C#N)=C\c2cc(C)n(-c3ccc4c(c3)OCO4)c2C)cc1` registered a z-score of -0.128. The compound `Cn1c(=O)oc2cc(S(=O)(=O)N3CCCC(C(=O)NCc4cccs4)C3)ccc21` (stereo unspecified) had a z-score of -0.657. Consider `CCOC(=O)C1=C(C)C(c2ccccc2O)NC(=O)N1` (stereo unspecified), for which the z-score is -0.217. As to `CCc1ccccc1NC(=O)c1cc2sccc2n1C`, the z-score was -0.142. To `CN(C)c1ccc(C=Nc2ccccc2)cc1` belongs -0.186; to `O=C1NC(=Nc2ccc(Cl)cc2)SC1Cc1cccc(Cl)c1Cl` (stereo unspecified), -0.307; to `O=C(Nc1ccc(F)cc1F)c1cc2ncc(Br)cn2n1`, 0.429. In turn, `CCN(CCCNC(=O)CN(C)S(=O)(=O)c1cccc2nsnc12)c1ccccc1` had a z-score of -0.112. Take `O=S(=O)(c1ccc(N2CCN(CCO)CC2)nc1)N1CCCCC1`: the z-score was -0.0126. As for `CC(=O)Nc1nc(=S)ss1`, the z-score was found to be 0.468. Consider `CCn1cc(C(=O)Nc2ccc(OC)c(OC)c2)c2cc(OC)c(OC)cc2c1=O`, for which the z-score is -0.788. For the compound `CCOC(=O)N1CCN(C(=O)CN2C(=O)COc3ccc(C)cc32)CC1`, the z-score is -0.865. To `CCOC(=O)N1CCN(c2c(NCCc3ccc(OC)c(OC)c3)c(=O)c2=O)CC1` belongs -0.98; to `Cn1c(SCC(=O)NCC2CCCO2)nc2c([nH]c3ccccc32)c1=O` (stereo unspecified), -0.0356. In the case of `CCOC(=O)c1c(C)[nH]c(C(=O)COC(=O)CCC2CCCC2)c1C`, the z-score was 0.436. Compound `O=C(c1cccs1)N1CCCC(c2nc(-c3ccc(F)cc3)no2)C1` (stereo unspecified) registered a z-score of -0.859.

In turn, `CC(C)CCNC(=O)Cc1ccccc1[N+](=O)[O-]` yielded a z-score of -0.383. To `COc1cccc(CN(CC2CCCO2)S(=O)(=O)c2ccc(S(=O)(=O)N(C)C)cc2)c1` (stereo unspecified) belongs -0.195; to `C=CCc1cccc(/C=N/n2c(C)nnc2C)c1O`, -0.0696. With `O=C(NCc1ccc2c(c1)OCO2)c1ccc(CSCc2ccccc2Cl)o1` the figure was -0.177; with `O=C1/C(=C\Nc2ccccc2)CCN1c1ncccn1`, 0.103. With `CC(C)C1N(S(=O)(=O)c2ccccc2)CCN1S(=O)(=O)c1ccccc1` the figure was -0.413; with `CC(/C=N/NC(=O)c1cc(-c2ccccc2)nc2ccccc12)=C\c1ccco1`, -0.0414; with `Cc1ccccc1C(=O)NC(NCC1CCCO1)C(Cl)(Cl)Cl` (stereo unspecified), -0.000655. For the compound `CCn1c(CNC(=O)C(C)(C)C)nc2ccccc21`, the z-score was -0.608. `O=C(N/C(=C/c1ccco1)C(=O)N1CCCCCC1)c1cccs1` yielded a z-score of -0.0982. To `COc1cc(O)c2c(c1)COC2=O` belongs -0.316.

`COc1ccc(C(=O)N2CCC(C(=O)NCc3ccccn3)CC2)cc1` returned a z-score of -0.377. As for `COc1cc(CCC(=O)N2CCN(c3ccc(N4CCOCC4)nn3)CC2)cc(OC)c1OC`, the z-score was -0.154. Consider `Cc1ccc(C(=O)CC2(O)C(=O)N(Cc3ccccc3)c3ccccc32)o1` (stereo unspecified), for which the z-score is -0.497. To `COc1ccc(C(=O)CSc2nnc(CN3CCCC3)n2-c2ccc(F)cc2)c(OC)c1` belongs -0.542. To `Cc1cc(N/C=C\C(=O)c2ccc(Cl)c(Cl)c2)no1` belongs 0.18; to `CCOC(=O)C1=C(C(F)(F)F)Nc2ncnn2C1c1cc(OC)ccc1OC` (stereo unspecified), -0.073.

In turn, `CCOC(=O)Cn1cc(C(=O)OC)c2ccccc21` gave a z-score of 0.0798. Take `COc1ccc(NC(=O)CCSc2ccc(C)cc2)cc1S(=O)(=O)Nc1ccccc1Cl`: the z-score was 0.0201.

Consider `COc1ccc(C2NC(=O)NC(O)(C(F)(F)F)C2C(=O)c2ccc(F)cc2)cc1` (stereo unspecified), for which the z-score was 0.124. Consider `O=S(=O)([N-]c1nc2ccccc2nc1-[n+]1ccccc1)c1ccc(Cl)cc1`, for which the z-score is -0.212. To `Cc1nn(-c2nc(-c3ccco3)cc(C(F)(F)F)n2)c(C)c1Cl` belongs -0.448; to `Oc1ccc(-c2onc(C(F)(F)F)c2-c2cscn2)c(O)c1`, -0.293. With `COc1ccc(S(=O)(=O)N(CCCN2CCOCC2)Cc2cccc(OC)c2OC)cc1` the figure was -0.262; with `COCC(C)NS(=O)(=O)c1ccc(C)cc1` (stereo unspecified), -0.139. Consider `O=C(Nc1ccc(Cn2cccn2)cc1)c1ccc(COc2ccccc2Br)cc1`, for which the z-score is -0.0941. In turn, `Cn1nnnc1SCC(=O)NCCc1ccc(Cl)cc1` displayed a z-score of -0.189. Regarding `O=C(CSc1nnc(CNC(=O)C23CC4CC(CC(C4)C2)C3)n1-c1ccc(F)cc1)Nc1ccc(F)cc1`, the z-score is -0.327. With `c1ccc(CSc2nnc(-c3ccccn3)n2-c2ccccc2)cc1` the figure was -0.0352; with `COc1ccc(-n2ncc(S(=O)(=O)c3ccccc3)c2-c2ccc(Cl)cc2)cc1`, 0.351. Compound `O=C(Nc1ccc2oc(=O)ccc2c1)c1cc2ccccc2o1` came in with a z-score of -1.25. To `Cc1ccc(-n2c(=S)[nH]c3c(oc4ccccc43)c2=O)cc1` belongs 0.618. In turn, `CNC(=O)NC(=O)CSc1nc2ccccc2n1CCOC` had a z-score of -0.465. On to `C=CCn1c(CNc2ccc(C)cc2)nnc1SCC(=O)N/N=C/c1ccc(O)cc1O`, for which the z-score came out at 0.0124. Regarding `O=C1CC(N2CCOCC2)C(=O)N1c1cccc(Cl)c1` (stereo unspecified), the z-score is -0.302. With `Cc1ccc(Cn2nnc3c(=O)[nH]c(C4CCN(C(=O)c5cccs5)CC4)nc32)cc1` the figure was -0.73. The compound `C=CCn1c(SCc2c(C)noc2C)nc2ccccc2c1=O` returned a z-score of 0.19. Consider `COC(=O)[C@H](C)NC(=O)Nc1ccc(OC)c(OC)c1`, for which the z-score was 0.367.

Consider `CCCCN(C)C(=O)c1cn(CC)c2ccc(S(=O)(=O)N(C)C)cc2c1=O`, for which the z-score was -0.332. On to `Cc1ccc(C(=O)NC(=S)Nc2ccccc2C(F)(F)F)cc1`, for which the z-score is active: 6.32.

`CC(C)Oc1ccc(NC(=O)c2ccncc2)cc1` gave a z-score of 0.155.

`CCCN(CC(=O)Nc1ccc(F)c(F)c1F)CC(=O)Nc1c(Cl)cccc1Cl` registered a z-score of -0.221. `COc1cnc(-c2ccccc2)nc1Oc1cccc(C)c1`: the z-score was -0.0595. As for `COc1ccc(C(=O)Nc2cc(-c3nn4c(C)nnc4s3)ccc2C)cc1`, the z-score was -0.731. `O=C(Cc1cccs1)NNC(=O)c1ccc(F)cc1`: the z-score was -0.132. The compound `CN(C)S(=O)(=O)c1ccc(N2CCCC2)c(C(=O)NCc2ccc(Cl)cc2)c1` yielded a z-score of -0.327.

As to `COC(=O)NC(NC(=S)Nc1ccc([N+](=O)[O-])cc1)C(Cl)(Cl)Cl` (stereo unspecified), the z-score is 0.482. In the case of `O=c1c2c(ncn1CCO)nc1n2CCC1`, the z-score is -0.204.

`CC1Cc2nc(SCC(=O)Nc3ccc(F)cc3F)n(C)c(=O)c2S1` (stereo unspecified): the z-score was -0.504.
